# Measurements published in PMC7819943, “Rice protein-binding microarrays: a tool to detect cis-acting elements near promoter regions in rice”.
# This is one part of the list.
# Molecular target: T1, OsWOX13 (Oryza sativa, UniProt Q5QMM3 1-267)
# T1 sequence: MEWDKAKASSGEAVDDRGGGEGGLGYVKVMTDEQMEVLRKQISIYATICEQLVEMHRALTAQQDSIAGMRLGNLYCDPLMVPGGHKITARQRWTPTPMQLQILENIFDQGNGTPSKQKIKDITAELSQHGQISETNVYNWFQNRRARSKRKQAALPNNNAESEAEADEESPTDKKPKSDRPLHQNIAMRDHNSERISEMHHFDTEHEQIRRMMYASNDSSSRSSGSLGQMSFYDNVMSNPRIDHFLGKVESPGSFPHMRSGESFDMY
# Test: protein-binding microarray (RPBM); PBS, 2% BSA, 51.3 ng/ul salmon testes DNA, 50 uM zinc acetate, 200 nM TF, 25 C, 1 h; high values mean tight binding
# Details: protein: recombinant; tags: N-terminal polyhistidine and DsRed monomer fusion (pET32a); label: CyDye5-dUTP incorporated in the synthesized complementary strand; 3' TTTTT single-stranded linker to array surface; dsDNA, one strand shown
# How it was run: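 Transcription factors, each fused N-terminally to a polyhistidine tag and DsRed, were expressed in E. coli BL21-CodonPlus and purified on Ni–NTA. A custom Agilent array was made double-stranded by primer extension with Cy5-dUTP and blocked with 2% BSA. It was incubated with 200 nM protein in PBS, 2% BSA, salmon testes DNA and 50 µM zinc acetate at 25 °C for 1 h, then washed. The binding signal is per-feature fluorescence intensity (arbitrary units) read on an Axon 4000B scanner.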
row,Sequence,binding signal
1,CATAATTATGTGTGTGGTCATCATTGAGAAATGGCTTGTCCGGAGTCACCTAGTGCAG,38000 fluorescence intensity (a.u.)
2,CATTGTATTTATATCCAATTAGGAACTCTCATCCGTACGCCGGAGTCACCTAGTGCAG,3760 fluorescence intensity (a.u.)
3,CTAATTAATCCGTTATTAGCACATATGTGTTACTGTAGCACGGAGTCACCTAGTGCAG,12200 fluorescence intensity (a.u.)
4,CATAATTAGAGAATGTTTACTGTAGCATCACATAAGCTAACGGAGTCACCTAGTGCAG,10700 fluorescence intensity (a.u.)
5,TCCCTATTTACCGCAATTGACTTTGAACACAAAAGTTTAACGGAGTCACCTAGTGCAG,3400 fluorescence intensity (a.u.)
6,ACAGTCAAATTCAACTAAAATTTATTGAATTTACCGAGGACGGAGTCACCTAGTGCAG,5140 fluorescence intensity (a.u.)
7,AGGCATAATTATATATGCAACTTTGAATCCAACCGACGCTCGGAGTCACCTAGTGCAG,3180 fluorescence intensity (a.u.)
8,TATTTAATTAATCAATGATGTGTTAATCCGCAACTTCATTCGGAGTCACCTAGTGCAG,22700 fluorescence intensity (a.u.)
9,CACAAATTGTAAACATACTACCACCTCAGCTTGCTAGGCGCGGAGTCACCTAGTGCAG,15600 fluorescence intensity (a.u.)
10,AATTAAATTTGCCATGGCCTTTTCTGCCTATTTATATCAGCGGAGTCACCTAGTGCAG,7000 fluorescence intensity (a.u.)
11,CCGTTAAATTAAATGATAAGCCATACTTTGATTTCATTTTCGGAGTCACCTAGTGCAG,23000 fluorescence intensity (a.u.)
12,ATAAATTGGGTCAATTCTCTTCTTCTAAATATAAAAGTGGCGGAGTCACCTAGTGCAG,24800 fluorescence intensity (a.u.)
13,CTTGAATAGACTATTATATATGCATATAATACTACGAGTCCGGAGTCACCTAGTGCAG,3690 fluorescence intensity (a.u.)
14,TTGATCAATTTTATACTCCCTCCGTTTCGTATTGTAAAACCGGAGTCACCTAGTGCAG,3620 fluorescence intensity (a.u.)
15,GAACTAATTAGGCTTAAAAGATTCGTCTCGCGATTTCCTCCGGAGTCACCTAGTGCAG,25700 fluorescence intensity (a.u.)
16,CTCTCTCATTGATTGAGTGGATATTATATTTTAATGCGTTCGGAGTCACCTAGTGCAG,48500 fluorescence intensity (a.u.)
17,GGGTCAGGGTGGGCGTGGATTGATATTTTAATACGAATAACGGAGTCACCTAGTGCAG,10800 fluorescence intensity (a.u.)
18,GATAGCTCAATTATGTGCTATTAATATACAGAAGGCATGGCGGAGTCACCTAGTGCAG,4900 fluorescence intensity (a.u.)
19,CATAAATTATTCCTGTCTTGTAGTACATCCATCCATCCATCGGAGTCACCTAGTGCAG,26300 fluorescence intensity (a.u.)
20,TGTAGCAATTACGTTTCCCTTTCCTCCCCTGTCTCTTCCACGGAGTCACCTAGTGCAG,3380 fluorescence intensity (a.u.)
21,GTGACTGACTGATGATAAATTTGATAATACGCGTCGTTAGCGGAGTCACCTAGTGCAG,63100 fluorescence intensity (a.u.)

row,Sequence,binding signal
1,CCTATACTATAATTGCCAGTTCTCGCTTGCGGGACGAGAGCGGAGTCACCTAGTGCAG,8590 fluorescence intensity (a.u.)
2,TCTTGTTAACCTCATTATTAATTTTCTCTTCTAAACTCCTCGGAGTCACCTAGTGCAG,5290 fluorescence intensity (a.u.)
3,TACACTAATTTAAATAGTTGGAGGTAAAGACATCTAGTATCGGAGTCACCTAGTGCAG,13500 fluorescence intensity (a.u.)
4,ATAAATGATTGGAGGATTTGTTGTGACTTTTCCACAATGTCGGAGTCACCTAGTGCAG,58200 fluorescence intensity (a.u.)
5,AGCCTAATTAATCCGTCATTAGCAAACGTTTACTATAGCACGGAGTCACCTAGTGCAG,37100 fluorescence intensity (a.u.)
6,TATTATGTCGTCTTAATTAATTATTAGGTAGCCGGCCTACCGGAGTCACCTAGTGCAG,10200 fluorescence intensity (a.u.)
7,AATTAATAATGTCAGTCACGGCCACGAATAATCCAGCACGCGGAGTCACCTAGTGCAG,3900 fluorescence intensity (a.u.)
8,ACCAAATTTAACTTACATGCATGATATCTTTATTTATTATCGGAGTCACCTAGTGCAG,6380 fluorescence intensity (a.u.)
9,CACAGATAGATTTGCAGGTGTTCAGTCTACTACACCTGAACGGAGTCACCTAGTGCAG,27700 fluorescence intensity (a.u.)
10,TCAATTTGACGTTAACAGTGCCACGAGTACAGCCAAACCGCGGAGTCACCTAGTGCAG,3410 fluorescence intensity (a.u.)
11,CTTAATGAACGGTTTGATGAGGTAAACACAGATTTGCTCCCGGAGTCACCTAGTGCAG,19200 fluorescence intensity (a.u.)
12,AAACAAATTATCCATGTTCTGTTGGGTTGAGAATTTTGATCGGAGTCACCTAGTGCAG,7520 fluorescence intensity (a.u.)
13,TAAATTGTACATGATATATGTCAAGTGTCAACGTCTGATTCGGAGTCACCTAGTGCAG,5030 fluorescence intensity (a.u.)
14,GATAACGTGGCCAAATTATATCAGACGTTCATGTTTAGATCGGAGTCACCTAGTGCAG,5800 fluorescence intensity (a.u.)
15,ACTGTACTGATTACATCATTTGACTAGGTCGTTGCACGCGCGGAGTCACCTAGTGCAG,15700 fluorescence intensity (a.u.)
16,ATTTAATGGAACTAATTTGGTGTCCTAGATATTGTTATTTCGGAGTCACCTAGTGCAG,28600 fluorescence intensity (a.u.)
17,GAATTGAATTATTAGTATCTTAATTATTTGTTTAAAATATCGGAGTCACCTAGTGCAG,3230 fluorescence intensity (a.u.)
18,ACAGATTGCTCCACTTCGCCTGCCTGCTTCGCCCACCGTCCGGAGTCACCTAGTGCAG,5250 fluorescence intensity (a.u.)
19,GTTACATGACAATTGACAATCTAATCAGTATGTTATTGTCCGGAGTCACCTAGTGCAG,16100 fluorescence intensity (a.u.)
20,CTTTAATTTGCATGTCTCTCCATCACTACCAAATTCGGCTCGGAGTCACCTAGTGCAG,40800 fluorescence intensity (a.u.)
21,AATGTGATTTTCATGTATCCAATTAAAATATTTTAAGAAGCGGAGTCACCTAGTGCAG,9180 fluorescence intensity (a.u.)
